Article PMC4336329 (PLoS ONE, 2015)
Among all 310,000 compounds or so, about 2,200 (0.71%) showed an effect of 50% or more. The effect is printed as a negative number. Some of the results follow.

target: human ether-à-go-go-related gene (hERG) potassium channel (human, UniProt Q12809); assay: primary screen, population patch clamp on CHO cells stably expressing hERG
Sequence (Q12809 whole entry, looked up): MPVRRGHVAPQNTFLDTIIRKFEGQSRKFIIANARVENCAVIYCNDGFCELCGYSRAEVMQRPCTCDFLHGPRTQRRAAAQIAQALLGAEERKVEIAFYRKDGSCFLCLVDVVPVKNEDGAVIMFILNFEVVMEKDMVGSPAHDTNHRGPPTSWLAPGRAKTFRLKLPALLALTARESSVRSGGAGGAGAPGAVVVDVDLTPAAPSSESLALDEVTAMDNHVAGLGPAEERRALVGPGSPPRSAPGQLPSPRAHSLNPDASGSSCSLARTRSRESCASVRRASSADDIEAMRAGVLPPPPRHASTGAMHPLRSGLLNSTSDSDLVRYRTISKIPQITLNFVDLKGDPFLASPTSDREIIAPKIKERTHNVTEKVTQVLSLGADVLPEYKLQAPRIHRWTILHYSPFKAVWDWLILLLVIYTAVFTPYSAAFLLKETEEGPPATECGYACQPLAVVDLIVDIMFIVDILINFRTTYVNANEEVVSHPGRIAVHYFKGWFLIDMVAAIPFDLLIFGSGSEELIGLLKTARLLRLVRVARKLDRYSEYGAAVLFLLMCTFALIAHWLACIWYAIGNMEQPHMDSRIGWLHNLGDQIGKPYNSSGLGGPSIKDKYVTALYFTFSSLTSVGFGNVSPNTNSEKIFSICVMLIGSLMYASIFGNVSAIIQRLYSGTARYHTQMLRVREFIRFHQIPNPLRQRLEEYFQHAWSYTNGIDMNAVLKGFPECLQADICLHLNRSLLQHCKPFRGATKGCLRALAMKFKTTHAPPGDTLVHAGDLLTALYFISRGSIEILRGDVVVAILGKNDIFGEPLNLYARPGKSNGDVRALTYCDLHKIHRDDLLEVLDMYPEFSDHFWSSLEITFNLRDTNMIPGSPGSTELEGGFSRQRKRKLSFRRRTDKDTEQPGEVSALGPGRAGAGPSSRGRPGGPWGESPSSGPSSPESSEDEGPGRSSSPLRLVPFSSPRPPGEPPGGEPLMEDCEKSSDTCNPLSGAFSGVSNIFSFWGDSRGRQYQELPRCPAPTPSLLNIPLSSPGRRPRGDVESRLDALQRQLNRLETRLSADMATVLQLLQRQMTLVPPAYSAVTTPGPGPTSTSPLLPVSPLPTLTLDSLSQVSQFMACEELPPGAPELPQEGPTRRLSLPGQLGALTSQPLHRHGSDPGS

Compound	hERG current change (%, negative = inhibition) at 1uM [%]
O=C(c1ccc2c3c(cccc13)CC2)C1CCCN(CC2CC2)C1 (stereo not drawn)	0.988
COc1cc(-c2cc(N)n(S(=O)(=O)c3ccc(F)cc3)n2)cc(OC)c1OC	0.825
CCN(Cc1ccccc1)C(=O)COC(=O)c1n[nH]c2ccccc12	4.61
CCOC(=O)CN1N=C(c2ccc(Cl)cc2)CCC1=O	5.31
CCn1c(CNC(=O)c2ccco2)nnc1SCC(=O)Nc1cc(C(F)(F)F)ccc1Cl	-8.83
CCOc1ccc(Oc2ccc(S(=O)(=O)N3CCOCC3)cc2N)cc1	5.58
Cc1cccc(OC(C)C(=O)Nc2cc(S(=O)(=O)N3CCCCC3)ccc2C)c1 (stereo not drawn)	0.572
COc1nccc(Nc2ccccc2)c1C#N	-2.66
Cc1c(CCC(=O)NC2CC2)c(=O)oc2cc(O)ccc12	8.18
O=C(CNC(=O)c1ccc(Br)o1)NCc1ccc(Cl)cc1Cl	5.24
COc1ccc([C@H]2CC(=O)C=C(c3cccc(OC)c3OC)C2)cc1OC	6.52
CCSc1nnc(NC(=O)C2CC2c2ccccc2)s1 (stereo not drawn)	11.6
CC(C)C[C@H](NC(=O)N1CCn2c1nc1ccccc12)C(=O)NCc1ccccc1	4.77
O=c1c2ccccc2nc(N2CCCC2)n1-c1ccccc1	10.4
CCCn1c(-c2cccnc2Cl)nc2cc(Cl)c(Cl)cc21	4.17
COc1ccc(-c2cnc3c(c2)CCC3(C#N)C#N)cc1	0.108
O=C(CS(=O)(=O)Cc1ccccc1)N1CCN(c2ccccc2F)CC1	3.6
COc1ccc(CN2CCN(c3ccc(F)cc3)CC2)c(OC)c1OC	-35.4
O=C1Nc2ccccc2C1Cc1ccccc1 (stereo not drawn)	1.62

Compound	hERG current change (%, negative = inhibition) at 1uM [%]
CCCCn1c(N)c(N(CCOC)C(=O)CCCc2cccs2)c(=O)[nH]c1=O	-5.03
COc1cc(COCC(O)CN2CCOCC2)cc(OC)c1OC.Cl (stereo not drawn)	-0.425
CCOC(=O)N1CCN(S(=O)(=O)c2ccc(F)c(C(=O)Nc3cccc(Cl)c3C)c2)CC1	-1.1
CC(C)C(=O)Nc1ccccc1N1CCN(S(C)(=O)=O)CC1	6.46
CN(C)CCCN(C(=O)CCc1ccccc1)c1nc2ccc(Cl)cc2s1.Cl	2.37
CCCCC(O)(c1ccc(CC)cc1)C(CN1CCOCC1)c1ccccc1.Cl (stereo not drawn)	8.88
CCC(=O)NNC(=O)CCC(=O)Nc1cccc(Cl)c1C	12.4
Cc1ccc(C)c(NC(=O)C2CCCN2S(=O)(=O)c2ccc3c(c2)n(C)c(=O)c(=O)n3C)c1 (stereo not drawn)	-3.19
CC12CCC(C(=O)NC3CCCCC3)([C@H](Br)C1=O)C2(C)C (stereo partly drawn)	9.98
Cc1ccccc1C(=O)O/N=C(\N)c1cccc([N+](=O)[O-])c1	0.696
O=C(C1CCCN(c2nnc(-n3cccc3)s2)C1)N1CCN(c2ccccc2)CC1 (stereo not drawn)	8.86
O=C(CCn1c(=O)sc2ccccc21)NCc1ccc2c(c1)OCO2	22.1
CCN(CC(=O)NCc1cccs1)C(=O)c1ccc(S(=O)(=O)Nc2ccccc2C)cc1	15.8
CC(=O)CCN1CCOCC1	11.4
CCc1nn2c(=O)c(S(=O)(=O)Nc3cccc(F)c3)c(C)nc2s1	10.4
CCCn1nc(NS(=O)(=O)c2cccc3nonc23)c2cc3ccccc3nc21	13.5
CCCCNC(=O)Nc1nc(SCC(=O)OCC)n[nH]1	8.92
COc1ccccc1/C=C1\SC(=S)N(CC(=O)Nc2nnc(C)s2)C1=O	12.7
CN1CCN(C(=O)c2cc(Oc3c(F)c(F)c(F)c(F)c3F)cc(C(=O)N3CCN(C)CC3)c2)CC1	17

Compound	hERG current change (%, negative = inhibition) at 1uM [%]
COc1ccc(CNC(=O)C(NS(=O)(=O)c2ccc3c(c2)CCCN3C(C)=O)C(C)C)cc1 (stereo not drawn)	-4.53
Cc1oc(-c2ccc(F)cc2F)nc1CN1C[C@@H]2C[C@@H](C1)c1cccc(=O)n1C2	-21.2
CCc1ccc(S(=O)(=O)NCc2ccc(N3CCN(C)CC3)cc2)cc1	9.16
O=C(CSc1nnc2scc(-c3ccccc3)n12)NCc1ccc2c(c1)OCO2	3.88
Cc1cc(OCC(=O)NCCCN2CCCC2=O)c2c(C)c(C)c(=O)oc2c1	-4.41
CC(C)(C)c1csc(NC(=O)c2ccc(Br)o2)n1	7.46
COc1ccccc1CNC(=O)c1cccc(-c2ccc(C)c3ccccc23)n1	15.6
Cc1cc2c(C)nc3ccccc3c2o1	11.9
Cc1cc(C)c(NC(=O)CN2C(=O)NC3(CCCCC3)C2=O)c(Cl)c1	0.0119
CCOc1ccccc1C1CC(c2ccccc2)Nc2nc(N)nn21.Cl (stereo not drawn)	-2.71
CCOCC(=O)Nc1nnc(COCC)s1	7.17
CCCC1C(C#N)=C(N)Oc2c1c(=O)oc1ccccc21 (stereo not drawn)	9.9
CS(=O)(=O)Nc1cccc(C(=O)OCCCOc2ccc(F)cc2)c1	1.44
COc1ccc(-c2nnn(CC(=O)N(CCCN3CCOCC3)C(C(=O)NC3CCCC3)c3ccc(C)o3)n2)cc1 (stereo not drawn)	8.35
N=C1c2ccccc2CN1NC(=O)c1ccc(Br)o1	15.5
O=C(CCl)Nc1cn(-c2ccccc2)nc1-c1ccccc1	-0.41
CCc1cc2c(=O)c(-c3nc4ccccc4n3C)coc2c(CN2CCCC(C)C2)c1O (stereo not drawn)	10.6
CCCN1C/C(=C/c2ccc3c(c2)OCO3)C(=O)/C(=C/c2ccc3c(c2)OCO3)C1	5.93
Brc1ccc(Oc2ncc(CN3CCN(c4ccccc4)CC3)s2)cc1	11.1
